Measurements from PubChem BioAssay AID360 (National Center for Advancing Translational Sciences (NCATS), 2006).
Hit rate of the full screen: of about 48,000 compounds, about 550 (1.1%) were called active. Roughly 4% stayed inconclusive and do not appear here. No stated cut-off is given here; in the data, active means potency below about 15 µM; inconclusive means mostly about 16 µM to 33 µM; inactive means weaker than that. Some of the results follow.

biological target: Lysosomal acid glucosylceramidase (Homo sapiens) (UniProt P04062); experiment: Glucocerebrosidase; details: purified enzyme, resorufin glucoside fluorescence (screen aimed at inhibitors), 20 min;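 further: the screen sought inhibitors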
Sequence of UniProt P04062 (P04062 whole entry, looked up): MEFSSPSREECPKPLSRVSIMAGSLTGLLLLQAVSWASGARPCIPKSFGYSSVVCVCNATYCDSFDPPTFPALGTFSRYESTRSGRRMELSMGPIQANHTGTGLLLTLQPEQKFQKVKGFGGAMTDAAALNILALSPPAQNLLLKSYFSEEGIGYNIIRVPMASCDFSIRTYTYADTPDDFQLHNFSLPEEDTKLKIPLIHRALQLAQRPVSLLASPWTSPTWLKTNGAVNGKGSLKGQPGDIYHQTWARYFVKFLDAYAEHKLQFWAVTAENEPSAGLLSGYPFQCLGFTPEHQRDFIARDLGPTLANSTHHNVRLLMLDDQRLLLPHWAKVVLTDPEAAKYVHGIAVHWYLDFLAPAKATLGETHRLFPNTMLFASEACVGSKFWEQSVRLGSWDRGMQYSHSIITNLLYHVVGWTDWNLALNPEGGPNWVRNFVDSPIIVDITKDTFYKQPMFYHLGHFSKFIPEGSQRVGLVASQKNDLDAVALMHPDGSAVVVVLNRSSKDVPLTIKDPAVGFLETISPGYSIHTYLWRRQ
Outline: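 Wild-type enzyme at 0.2 nM final in 50mM citric acid/KH2PO4, 10mM sodium taurocholate, 0.01% tween-20, pH 5.9, with resorufin beta-D-glucopyranoside at 30 uM final. Compounds titrated, 20 min at RT, red fluorescence read; AC50 from titration.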
Potency means the concentration at half of the fitted maximal effect.

Potency, inactive:
CCOc1ccccc1-n1c(COc2ccc(C)cc2)nnc1SCC(N)=O > 76.9 µM
COC(=O)C1=C(C)N=C2SCCC(=O)N2C1c1cc(Br)ccc1OC (stereo not drawn) > 76.9 µM
COc1ccc(-n2nc(C(=O)N3CCCCC3)c3ccccc3c2=O)cc1 > 76.9 µM
O=C(O)COc1ccc(Cl)cc1CO > 76.9 µM
O=C(O)c1ccc(COc2c(F)c(F)cc(F)c2F)cc1 > 76.9 µM
CCc1c(C)nc(N)n2c(SCC(=O)Nc3ccccc3OC)nnc12 > 76.9 µM
O=C(c1ccccc1-c1nc(-c2ccc(F)cc2)no1)N1CCCC1 > 76.9 µM
CCCCOc1ccc(C(=O)Oc2ccc(C)nc2)cc1 > 76.9 µM
N#Cc1nc(Cc2ccccc2)oc1N1CCC(C(N)=O)CC1 > 76.9 µM
Cn1c(=O)c2c(nc(OCc3cccnc3)n2Cc2c(F)cccc2Cl)n(C)c1=O > 76.9 µM
O=C1c2ccccc2C(=O)N1Cc1nc(-c2ccccn2)no1 > 76.9 µM
Cc1noc(C)c1COc1ccc(C(=O)NCc2ccccn2)cc1 > 76.9 µM
Cc1cc(C)nc(N2CCC(CNC(=O)CCc3ccccc3)CC2)n1 > 76.9 µM
O=C(OCC(=O)N(C1CCCCC1)C1CCCCC1)c1cnccn1 > 76.9 µM
CCCc1cc(=O)[nH]c(SCC(=O)N(C)C2CCS(=O)(=O)C2)n1 (stereo not drawn) > 76.9 µM
Cc1csc(NC(=O)c2ccc(C)c(S(=O)(=O)N3CCCCC3)c2)n1 > 76.9 µM
CCOc1ccc(Nc2nc(Cc3nnc(SCC(=O)O)o3)cs2)cc1 > 76.9 µM
CCOC(=O)c1[nH]c(COC(=O)CCCOc2ccccc2)c(C(=O)OCC)c1C > 76.9 µM
COC(=O)c1ccc(OCCn2cnc3ccccc3c2=O)cc1 > 76.9 µM
NC(=O)c1c(NC(=O)C2CCCO2)sc2c1CCC2 (stereo not drawn) > 76.9 µM
CCSc1nnc(-c2ccc(OC)cc2)o1 > 76.9 µM
O=C(O)c1ccc(OCC(O)Cn2cnc3ccccc32)cc1 (stereo not drawn) > 76.9 µM
O=C(c1cc2nc3c(c(C(F)(F)F)n2n1)CCc1ccccc1-3)N1CCN2CCCC2C1 (stereo not drawn) > 76.9 µM
CCOC(=O)c1cccc(NC(=O)CSc2nnc(C)n2Cc2ccccc2)c1 > 76.9 µM
CCOC(=O)c1cc(NC(=O)N2CCOCC2)c(C)nc1C > 76.9 µM
CN(CC(=O)Nc1ccc(F)c(F)c1F)c1cnccn1 > 76.9 µM
O=C(CCS(=O)(=O)c1ccc(Br)cc1)N1CCN(c2ccccc2)CC1 > 76.9 µM
Cc1nn(Cc2ccccc2Cl)c2sc(C(=O)OC3CCCC3=O)cc12 (stereo not drawn) > 76.9 µM
CCOC(=O)c1c(N)c(C#N)cn1-c1ccccc1 > 76.9 µM
COc1cc2cc(CN(Cc3nnnn3C3CCCC3)C3CCCC3)c(=O)[nH]c2cc1OC > 76.9 µM
C=CCOc1cccc(C2C(C(=O)c3ccco3)=C(O)C(=O)N2Cc2ccncc2)c1 (stereo not drawn) > 76.9 µM
Cn1c(=O)c2c(nc(SCC(=O)NCc3ccco3)n2C)n(C)c1=O > 76.9 µM
CCOC(=O)c1cc2c(=O)n3ccccc3nc2n(CCCOC)c1=NC(=O)c1cccnc1 > 76.9 µM
O=S(=O)(CCN(CCS(=O)(=O)C(F)(F)F)CC1CCCO1)C(F)(F)F (stereo not drawn) > 76.9 µM
Cc1ccc(-n2c(Cc3cccn3C)nnc2SCC(=O)Nc2cc(C)on2)cc1 > 76.9 µM
COC(=O)c1ccccc1NC(=O)Nc1ccc(C(=O)N2CCCC2)cc1 > 76.9 µM
O=C1C2C3C=CC(C3=C3CCCCC3)C2C(=O)N1Cc1ccccc1 (stereo not drawn) > 76.9 µM
O=C(Nc1ccccc1Cl)c1c(F)c(F)c(F)c(F)c1F > 76.9 µM
Cc1[nH]c(=O)[nH]c1CN1CCCCC1 > 76.9 µM
O=C(c1n[nH]c(=O)c2ccccc12)N1CCN(c2ccccc2Cl)CC1 > 76.9 µM
Cc1cc(=O)n(C)c(=O)n1CCCCCN1CCCC1 > 76.9 µM
O=C(c1ccccc1NS(=O)(=O)c1cccs1)N1CCOCC1 > 76.9 µM
Cc1cc(C)cc(Nc2ccc(C(=O)O)cc2N)c1 > 76.9 µM
CCn1c(SCC(=O)c2[nH]c(C)c(C(C)=O)c2C)nnc1-c1ccncc1 > 76.9 µM
COc1ccc(C)cc1NC(=O)CNC(=O)Cn1ccc2ccccc2c1=O > 76.9 µM
Cn1c(=O)cc(OCCCC(=O)Nc2ccc3c(c2)OCCO3)c2ccccc21 > 76.9 µM
C=CCn1c(SCCC#N)nnc1-c1ccncc1 > 76.9 µM
Cc1cc2cc(CNC(=O)CCC(=O)O)ccc2[nH]1 > 76.9 µM
CCOc1ccc2nc(NC(=O)CSc3nc4cccnc4n3C)sc2c1 > 76.9 µM
CC1C(c2ccccc2)N(C)CCC12NC(=O)NC2=O (stereo not drawn) > 76.9 µM
Cc1nc2ncnn2c(N2CCCC(C(=O)Nc3ccc4c(c3)CCC4)C2)c1C (stereo not drawn) > 76.9 µM
CCOC(=O)c1cc(NC(=O)C2CCCO2)cc(C(=O)OCC)c1 (stereo not drawn) > 76.9 µM
COc1ccc(-n2nnnc2-c2cccc(OC)c2)cc1 > 76.9 µM
O=C(Cn1cnc2c(cnn2-c2ccccc2)c1=O)NCc1ccccc1 > 76.9 µM
CCN(C(=O)CSc1ncn[nH]1)c1cccc2ccccc12 > 76.9 µM
CCOC(=O)CSc1nnc(CNC(=O)c2cccs2)n1-c1ccccc1 > 76.9 µM
COc1cccc(-n2nnc3c(=O)n(CC(=O)OCc4ccccc4)cnc32)c1 > 76.9 µM
CCN(CC)C(=O)C1CCN(CC2CC=CCC2)CC1 (stereo not drawn) > 76.9 µM
O=C(NCc1cccnc1)C1CC(=O)N(c2ccc(Cl)cc2)C1 (stereo not drawn) > 76.9 µM
Cc1cc(C)n(-c2cc(=O)n(C)c(=O)n2C)n1 > 76.9 µM
COc1cccc(-n2ccnc2SCC(=O)Nc2cc(OC)ccc2OC)c1 > 76.9 µM
CCCc1cc(=O)[nH]c(SCC(=O)Nc2cc3c(cc2C(C)=O)OCO3)n1 > 76.9 µM
CCOC(=O)C1CCCN(Cc2ccccc2OCC)C1 (stereo not drawn) > 76.9 µM
O=C(NCc1ccccc1)c1ccc(OC2CSC2)cc1 > 76.9 µM
COc1ccc2[nH]c(C)c(C(=O)CN(C)C)c2c1
CCOC(=O)CN(C(=O)CSc1nnc(CNc2ccc(F)cc2)o1)c1ccccc1 > 76.9 µM
Cc1cc(C)nc(Nc2ccc(N3CCCC3)cc2)n1 > 76.9 µM
COc1ccc(NC(=O)CN(C)S(=O)(=O)c2cccs2)cc1 > 76.9 µM
CCCC(=O)Nc1ccc(NC(=O)CCc2ccccc2)cn1 > 76.9 µM
O=C(NC1CCCCC1)C1CCCN1C(=O)NCc1ccccc1 (stereo not drawn) > 76.9 µM
CCCn1c2c(c(O)c(C(=O)Nc3ccccn3)c1=O)CCCC2 > 76.9 µM
N#Cc1nc(COc2ccccc2)oc1N1CCOCC1 > 76.9 µM
Cc1ccnc(NS(=O)(=O)c2ccc(NC(=O)C3CCCNC3=O)cc2)n1 (stereo not drawn) > 76.9 µM
COc1ccccc1N1CCN(C(=O)c2c(-c3c(Cl)cccc3Cl)noc2C)CC1 > 76.9 µM
O=C(NC1CCCCCC1)C1c2ccccc2C(=O)N1Cc1cccnc1 (stereo not drawn) > 76.9 µM
O=C(CCCCn1c(=O)[nH]c2ccsc2c1=O)NCc1cccnc1 > 76.9 µM
O=c1c2ccccc2cnn1-c1nc2ccccc2s1 > 76.9 µM
Cc1cccc(N(CC(N)=O)C2SC(=O)N(c3ccccc3)C2=O)c1 (stereo not drawn) > 76.9 µM
O=C(Nc1nc(-c2cccs2)c(-c2ccccc2)s1)c1ccco1 > 76.9 µM
O=C(O)c1n[nH]c2c1CCCC2 > 76.9 µM
CCOC(=O)N1CCN(S(=O)(=O)c2ccc3c(c2)SC(C)C(=O)N3)CC1 (stereo not drawn) > 76.9 µM
COC(=O)c1ccccc1NC(=O)CN1CCC(n2nnc3cc(C)ccc32)CC1 > 76.9 µM
O=C(O)CSc1ccccn1 > 76.9 µM
Nc1nc(SCC(=O)C23CC4CC(CC(C4)C2)C3)n[nH]1 > 76.9 µM
COc1ccc(NC(=O)CCNS(=O)(=O)c2ccc3c(c2)c(=O)n(C)c(=O)n3C)cc1 > 76.9 µM
CCc1nn2cc(-c3ccccc3)nc2s1 > 76.9 µM
Cc1cc(NC(=O)COc2nnc(-c3ccccc3)c3ccccc23)no1 > 76.9 µM
Cc1ccc(-c2nc3ncccc3o2)cc1NC(=O)c1ccco1 > 76.9 µM
Cc1ccc(C)c(C(=O)NC2CC(C)(C)NC(C)(C)C2)c1 > 76.9 µM
CCN=C1SC(C(N)=O)CC(=O)N1CC (stereo not drawn) > 76.9 µM
O=S(=O)(Nc1nc2ccccc2nc1NCC1CCCO1)c1cccs1 (stereo not drawn) > 76.9 µM
Cc1ccc(CN(C)CCc2ccccn2)cc1 > 76.9 µM
CC(=O)Nc1cccc(N2C(=O)CC(N3CCC(C(=O)N4CCCCC4)CC3)C2=O)c1 (stereo not drawn) > 76.9 µM
